# Assay results published in the supplement of paper PMC8728848.
# The other results are listed elsewhere or left out.
# B1: Clec2 (Mus musculus), Q9JL99 (protein)
# chain: MQDEDGYITLNIKPRKQALSSAEPASSWWRVMALVLLISSMGLVVGLVALGIMSVTQQKYLLAEKENLSATLQQLAKKFCQELIRQSEIKTKSTFEHKCSPCATKWRYHGDSCYGFFRRNLTWEESKQYCTEQNATLVKTASQSTLDYIAERITSVRWIGLSRQNSKKDWMWEDSSVLRKNGINLSGNTEENMNCAYLHNGKIHPASCKERHYLICERNAGMTRVDQLL
# What was measured:
# Test in all cases: glycan array binding signal (z-score within array); higher = stronger binding
# Conditions in all cases: glycan notation: IUPAC condensed, linker removed
# Fuc(a1-2)Gal = target: Fuc(a1-2)Gal
# Method in brief: (§1)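 The binding signal is a Z-score computed within each array. Data were drawn from 3228 arrays in the Consortium for Functional Glycomics database, restricted to those with a known protein sequence. Scores were averaged over arrays of the same protein sequence at different concentrations or buffers, and over linkers, and negative values can be taken as non-binding.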
# Fuc(a1-2)Gal(b1-3)GalNAc = target: Fuc(a1-2)Gal(b1-3)GalNAc
# Method in brief: as §1
# [1] = target: Fuc(a1-2)Gal(b1-3)GalNAc(a1-3)[Fuc(a1-2)]Gal(b1-4)Glc
# Method in brief: as §1
# [2] = target: Fuc(a1-2)Gal(b1-3)GalNAc(a1-3)[Fuc(a1-2)]Gal(b1-4)GlcNAc
# Method in brief: as §1
# [3] = target: Fuc(a1-2)Gal(b1-3)GalNAc(b1-3)Gal
# Method in brief: as §1
# [4] = target: Fuc(a1-2)Gal(b1-3)GalNAc(b1-3)Gal(a1-4)Gal(b1-4)Glc
# Method in brief: as §1
# [5] = target: Fuc(a1-2)Gal(b1-3)GalNAc(b1-4)[Neu5Ac(a2-3)]Gal(b1-4)Glc
# Method in brief: as §1
# Fuc(a1-2)Gal(b1-3)GlcNAc = target: Fuc(a1-2)Gal(b1-3)GlcNAc
# Method in brief: as §1
# [6] = target: Fuc(a1-2)Gal(b1-3)GlcNAc(b1-2)Man(a1-3)[Fuc(a1-2)Gal(b1-3)GlcNAc(b1-2)Man(a1-6)]Man(b1-4)GlcNAc(b1-4)GlcNAc
# Method in brief: as §1
# [7] = target: Fuc(a1-2)Gal(b1-3)GlcNAc(b1-2)Man(a1-3)[Fuc(a1-2)Gal(b1-3)GlcNAc(b1-2)Man(a1-6)]Man(b1-4)GlcNAc(b1-4)[Fuc(a1-6)]GlcNAc
# Method in brief: as §1
# [8] = target: Fuc(a1-2)Gal(b1-3)GlcNAc(b1-3)Gal(b1-4)Glc
# Method in brief: as §1
# [9] = target: Fuc(a1-2)Gal(b1-3)GlcNAc(b1-3)GalNAc
# Method in brief: as §1
# [10] = target: Fuc(a1-2)Gal(b1-3)GlcNAc(b1-3)[Fuc(a1-2)Gal(b1-3)GlcNAc(b1-6)]GalNAc
# Method in brief: as §1
# [11] = target: Fuc(a1-2)Gal(b1-3)GlcNAc(b1-3)[Gal(b1-4)GlcNAc(b1-6)]Gal(b1-4)Glc
# Method in brief: as §1
# [12] = target: Fuc(a1-2)Gal(b1-3)GlcNAc(b1-3)[Neu5Ac(a2-6)Gal(b1-4)GlcNAc(b1-6)]Gal(b1-4)Glc
# Method in brief: as §1
# [13] = target: Fuc(a1-2)Gal(b1-3)GlcNAc6S
# Method in brief: as §1
# [14] = target: Fuc(a1-2)Gal(b1-3)[Fuc(a1-4)]GlcNAc
# Method in brief: as §1
# [15] = target: Fuc(a1-2)Gal(b1-3)[Fuc(a1-4)]GlcNAc(b1-2)Man(a1-3)[Fuc(a1-2)Gal(b1-3)[Fuc(a1-4)]GlcNAc(b1-2)Man(a1-3)]Man(b1-4)GlcNAc(b1-4)GlcNAc
# Method in brief: as §1
# [16] = target: Fuc(a1-2)Gal(b1-3)[Fuc(a1-4)]GlcNAc(b1-2)Man(a1-3)[Fuc(a1-2)Gal(b1-3)[Fuc(a1-4)]GlcNAc(b1-2)Man(a1-6)]Man(b1-4)GlcNAc(b1-4)[Fuc(a1-6)]GlcNAc(b1-4)[Fuc(a1-6)]GlcNAc
# Method in brief: as §1
# [17] = target: Fuc(a1-2)Gal(b1-3)[Fuc(a1-4)]GlcNAc(b1-3)[Fuc(a1-3)[Gal(b1-4)]GlcNAc(b1-6)]Gal(b1-4)Glc
# Method in brief: as §1
# [18] = target: Fuc(a1-2)Gal(b1-3)[Fuc(a1-4)]GlcNAc(b1-3)[Gal(b1-4)GlcNAc(b1-6)]Gal(b1-4)Glc
# Method in brief: as §1
# [19] = target: Fuc(a1-2)Gal(b1-4)Fuc(a1-3)]GlcNAc(b1-2)Man(a1-3)[Fuc(a1-2)Gal(b1-4)[Fuc(a1-3)]GlcNAc(b1-2)Man(a1-6)]Man(b1-4)GlcNAc(b1-4)GlcNAc
# Method in brief: as §1
# Fuc(a1-2)Gal(b1-4)Glc = target: Fuc(a1-2)Gal(b1-4)Glc
# Method in brief: as §1
# Fuc(a1-2)Gal(b1-4)Glc6S = target: Fuc(a1-2)Gal(b1-4)Glc6S
# Method in brief: as §1
# Fuc(a1-2)Gal(b1-4)GlcNAc = target: Fuc(a1-2)Gal(b1-4)GlcNAc
# Method in brief: as §1
# [20] = target: Fuc(a1-2)Gal(b1-4)GlcNAc(b1-2)Man
# Method in brief: as §1
# [21] = target: Fuc(a1-2)Gal(b1-4)GlcNAc(b1-2)Man(a1-3)[Fuc(a1-2)Gal(b1-4)GlcNAc(b1-2)Man(a1-6)]Man(b1-4)GlcNAc(b1-4)GlcNAc
# Method in brief: as §1
# [22] = target: Fuc(a1-2)Gal(b1-4)GlcNAc(b1-2)Man(a1-3)[Fuc(a1-2)Gal(b1-4)GlcNAc(b1-2)Man(a1-6)]Man(b1-4)GlcNAc(b1-4)[Fuc(a1-6)]GlcNAc
# Method in brief: as §1
# [23] = target: Fuc(a1-2)Gal(b1-4)GlcNAc(b1-2)[Fuc(a1-2)Gal(b1-4)GlcNAc(b1-4)]Man(a1-3)[Fuc(a1-2)Gal(b1-4)GlcNAc(b1-2)Man(a1-6)]Man(b1-4)GlcNAc(b1-4)GlcNAc
# Method in brief: as §1
# [24] = target: Fuc(a1-2)Gal(b1-4)GlcNAc(b1-3)Gal(b1-4)GlcNAc
# Method in brief: as §1
# [25] = target: Fuc(a1-2)Gal(b1-4)GlcNAc(b1-3)Gal(b1-4)GlcNAc(b1-2)Man(a1-3)[Fuc(a1-2)Gal(b1-4)GlcNAc(b1-3)Gal(b1-4)GlcNAc(b1-2)Man(a1-6)]Man(b1-4)GlcNAc(b1-4)GlcNAc
# Method in brief: as §1
# [26] = target: Fuc(a1-2)Gal(b1-4)GlcNAc(b1-3)Gal(b1-4)GlcNAc(b1-3)Gal(b1-4)GlcNAc
# Method in brief: as §1
# [27] = target: Fuc(a1-2)Gal(b1-4)GlcNAc(b1-3)GalNAc
# Method in brief: as §1
# [28] = target: Fuc(a1-2)Gal(b1-4)GlcNAc(b1-3)[Fuc(a1-2)Gal(b1-4)GlcNAc(b1-6)]GalNAc
# Method in brief: as §1
# [29] = target: Fuc(a1-2)Gal(b1-4)GlcNAc(b1-3)[Fuc(a1-3)[Gal(b1-4)]GlcNAc(b1-6)]Gal(b1-4)Glc
# Method in brief: as §1
# [30] = target: Fuc(a1-2)Gal(b1-4)GlcNAc(b1-6)GalNAc
# Method in brief: as §1
# [31] = target: Fuc(a1-2)Gal(b1-4)GlcNAc6S
# Method in brief: as §1
# [32] = target: Fuc(a1-2)Gal(b1-4)[Fuc(a1-3)]GlcNAc
# Method in brief: as §1
# [33] = target: Fuc(a1-2)Gal(b1-4)[Fuc(a1-3)]GlcNAc(b1-2)Man(a1-3)[Fuc(a1-2)Gal(b1-4)[Fuc(a1-3)]GlcNAc(b1-2)Man(a1-6)]Man(b1-4)GlcNAc(b1-4)[Fuc(a1-6)]GlcNAc
# Method in brief: as §1
# [34] = target: Fuc(a1-2)Gal(b1-4)[Fuc(a1-3)]GlcNAc(b1-2)[Fuc(a1-2)Gal(b1-4)[Fuc(a1-3)]GlcNAc(b1-4)]Man(a1-3)[Fuc(a1-2)Gal(b1-4)[Fuc(a1-3)]GlcNAc(b1-2)Man(a1-6)]Man(b1-4)GlcNAc(b1-4)GlcNAc
# Method in brief: as §1
# [35] = target: Fuc(a1-2)Gal(b1-4)[Fuc(a1-3)]GlcNAc(b1-3)Gal(b1-4)[Fuc(a1-3)]GlcNAc
# Method in brief: as §1
# [36] = target: Fuc(a1-2)Gal(b1-4)[Fuc(a1-3)]GlcNAc(b1-3)Gal(b1-4)[Fuc(a1-3)]GlcNAc(b1-3)Gal(b1-4)[Fuc(a1-3)]GlcNAc
# Method in brief: as §1
# [37] = target: Fuc(a1-2)Gal(b1-4)[Fuc(a1-3)]GlcNAc(b1-3)GalNAc
# Method in brief: as §1
# [38] = target: Fuc(a1-2)Gal(b1-4)[Fuc(a1-3)]GlcNAc(b1-3)[Neu5Ac(a2-6)Gal(b1-4)GlcNAc(b1-6)]Gal(b1-4)Glc
# Method in brief: as §1
# [39] = target: Fuc(a1-2)Gal3S(b1-4)GlcNAc
# Method in brief: as §1
binder,measurement,setting,value
B1,glycan array binding signal (z-score),Fuc(a1-2)Gal,-0.183
same,glycan array binding signal (z-score),Fuc(a1-2)Gal(b1-3)GalNAc,-0.371
same,glycan array binding signal (z-score),[1],-0.209
same,glycan array binding signal (z-score),[2],-0.253
same,glycan array binding signal (z-score),[3],9.47
same,glycan array binding signal (z-score),[4],-0.36
same,glycan array binding signal (z-score),[5],-0.265
same,glycan array binding signal (z-score),Fuc(a1-2)Gal(b1-3)GlcNAc,-0.46
same,glycan array binding signal (z-score),[6],1.14
same,glycan array binding signal (z-score),[7],0.612
same,glycan array binding signal (z-score),[8],-0.094
same,glycan array binding signal (z-score),[9],0.239
same,glycan array binding signal (z-score),[10],-0.389
same,glycan array binding signal (z-score),[11],-0.797
same,glycan array binding signal (z-score),[12],-0.541
same,glycan array binding signal (z-score),[13],-0.346
same,glycan array binding signal (z-score),[14],-0.616
same,glycan array binding signal (z-score),[15],1.07
same,glycan array binding signal (z-score),[16],-0.361
same,glycan array binding signal (z-score),[17],-0.19
same,glycan array binding signal (z-score),[18],-0.681
same,glycan array binding signal (z-score),[19],3.96
same,glycan array binding signal (z-score),Fuc(a1-2)Gal(b1-4)Glc,-0.414
same,glycan array binding signal (z-score),Fuc(a1-2)Gal(b1-4)Glc6S,0.021
same,glycan array binding signal (z-score),Fuc(a1-2)Gal(b1-4)GlcNAc,-0.056
same,glycan array binding signal (z-score),[20],0.641
same,glycan array binding signal (z-score),[21],0.979
same,glycan array binding signal (z-score),[22],2.24
same,glycan array binding signal (z-score),[23],0.056
same,glycan array binding signal (z-score),[24],-0.542
same,glycan array binding signal (z-score),[25],-0.086
same,glycan array binding signal (z-score),[26],-0.684
same,glycan array binding signal (z-score),[27],-0.075
same,glycan array binding signal (z-score),[28],0.032
same,glycan array binding signal (z-score),[29],-0.801
same,glycan array binding signal (z-score),[30],-0.493
same,glycan array binding signal (z-score),[31],0.511
same,glycan array binding signal (z-score),[32],0.161
same,glycan array binding signal (z-score),[33],-0.189
same,glycan array binding signal (z-score),[34],0.373
same,glycan array binding signal (z-score),[35],-0.444
same,glycan array binding signal (z-score),[36],-0.387
same,glycan array binding signal (z-score),[37],0.059
same,glycan array binding signal (z-score),[38],-0.551
same,glycan array binding signal (z-score),[39],-0.777
